Results from publication PMC4336329 (PLoS ONE, 2015).
Out of some 310,000 compounds screened, about 2,200 (0.71%) showed an effect of 50% or more. The effect is printed as a negative number. The list shows a part of the results.

target: human ether-à-go-go-related gene (hERG) potassium channel (human, UniProt Q12809); test: primary screen, population patch clamp on CHO cells stably expressing hERG
Sequence (Q12809 whole entry, looked up): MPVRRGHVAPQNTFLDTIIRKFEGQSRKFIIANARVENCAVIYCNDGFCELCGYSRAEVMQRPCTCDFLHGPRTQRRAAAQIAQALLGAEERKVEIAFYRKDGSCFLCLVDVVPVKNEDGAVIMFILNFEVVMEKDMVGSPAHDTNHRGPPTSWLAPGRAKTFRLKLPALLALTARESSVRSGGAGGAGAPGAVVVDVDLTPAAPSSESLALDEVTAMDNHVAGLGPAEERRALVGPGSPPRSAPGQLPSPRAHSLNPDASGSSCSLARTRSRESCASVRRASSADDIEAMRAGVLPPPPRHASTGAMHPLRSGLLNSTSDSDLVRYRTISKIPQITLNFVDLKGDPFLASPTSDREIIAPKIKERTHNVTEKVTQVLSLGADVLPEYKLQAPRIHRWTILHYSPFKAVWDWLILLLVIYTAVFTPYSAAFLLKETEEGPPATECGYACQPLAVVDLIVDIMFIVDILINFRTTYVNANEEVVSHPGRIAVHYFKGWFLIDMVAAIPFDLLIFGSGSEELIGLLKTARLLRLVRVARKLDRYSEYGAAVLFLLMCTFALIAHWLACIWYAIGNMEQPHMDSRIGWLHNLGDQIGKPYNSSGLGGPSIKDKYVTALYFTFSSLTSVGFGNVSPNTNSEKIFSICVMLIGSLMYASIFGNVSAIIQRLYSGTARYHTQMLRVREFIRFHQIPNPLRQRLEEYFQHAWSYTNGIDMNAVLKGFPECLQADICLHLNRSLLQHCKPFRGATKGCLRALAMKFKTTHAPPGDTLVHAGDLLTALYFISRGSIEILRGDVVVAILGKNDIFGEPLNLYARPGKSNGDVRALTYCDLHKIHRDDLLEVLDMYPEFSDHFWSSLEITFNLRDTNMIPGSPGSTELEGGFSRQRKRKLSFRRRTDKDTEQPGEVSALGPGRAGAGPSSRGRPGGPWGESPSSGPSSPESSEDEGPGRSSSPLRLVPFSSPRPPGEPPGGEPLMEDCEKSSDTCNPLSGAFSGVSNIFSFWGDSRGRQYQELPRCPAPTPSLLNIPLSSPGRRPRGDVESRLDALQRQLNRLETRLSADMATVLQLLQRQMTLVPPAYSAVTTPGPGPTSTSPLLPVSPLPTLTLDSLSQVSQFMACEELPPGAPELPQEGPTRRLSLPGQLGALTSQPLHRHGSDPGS

SMILES | hERG current change (%, negative = inhibition) at 1uM
O=CN1CCN(c2ncnc3c2nnn3Cc2c(F)cccc2Cl)CC1 | 12.7%
O=c1[nH]c(=O)n(Cc2ccccc2Cl)c(O)c1/C=C1/C=CC=N1 | 17.9%
CN(C)C(CNC(=O)c1cccc(C(F)(F)F)c1)c1ccco1 (stereo not drawn) | 5.35%
O=C(N/N=C/c1cccc([N+](=O)[O-])c1O)c1cccs1 | -1.55%
CCOc1ccccc1-n1nnnc1SC(C)C(=O)OC (stereo not drawn) | 10.5%
COc1ccc2oc(=O)cc(CN3CCOCC3)c2c1 | 10.4%
NS(=O)(=O)c1ccc(CCNC(=O)C2CCCN(S(=O)(=O)c3cccnc3)C2)cc1 (stereo not drawn) | -4.45%
CCOC(=O)c1ccc(NC(=O)c2nc[nH]c2C(=O)N(C)Cc2ccccc2)cc1 | 9.44%
Cc1ccc(C2(c3ccc(C)cc3)CC2C(=O)NCc2cccnc2)cc1 (stereo not drawn) | 11.4%
O=C(NCCc1csc(-c2cccnc2)n1)c1cccc(Cl)c1 | 4.15%
Cc1cc([N+](=O)[O-])nn1CCC(=O)NC1CCCCCC1 | 2.84%
C/C(CC(=O)N(C(C)C)C(C)C)=N\NC(=O)c1ccccc1Br | 19.6%
COc1ccc(N(CC(=O)N2CCN(Cc3ccc4c(c3)OCO4)CC2)S(=O)(=O)c2ccc(F)cc2)cc1 | -24.5%
COC(=O)C1=C(c2ccccc2OCc2ccccc2)C[C@@H]2CC[C@H]1N2C(=O)NCc1ccc(OC)c(OC)c1 | 11.2%
CCOC(=O)c1cc2c(=O)n3ccccc3nc2n(CC2CCCO2)c1=NC(=O)/C=C/c1ccccc1 (stereo not drawn) | 1.02%
Cc1nc(/N=C\N(C)C)sc1C(=O)Nc1ccccc1 | 10.9%
NS(=O)(=O)c1ccc(NC=C2C(=O)OC3(CCCCC3)OC2=O)cc1 | 6.95%
O=c1cc(N2CCc3ccccc3C2)[nH]c(=O)n1C1CCCCC1 | 11.9%
CC(=O)Cc1nsc(NC(=O)c2ccccc2)n1 | 18.5%

SMILES | hERG current change (%, negative = inhibition) at 1uM
CCN1CCN(Cc2nnc(-c3ccccc3)o2)CC1 | 1.55%
COc1ccc(NC(=S)N2CCCC2)cc1OC | 11.9%
CCCOC(=O)c1ccc(NC(=O)c2ccc(Br)o2)cc1 | 4.8%
CC(=O)c1c(C)[nH]c(C(=O)OCC(=O)N2CC(C)OC(C)C2)c1C (stereo not drawn) | 23.6%
CC(=O)N(Cc1ccccc1)c1c(N)nc(N)[nH]c1=O | 11.9%
CC(C)Oc1cc(NC(=O)CS(=O)CC(=O)N(C)C)c(Cl)cc1Cl (stereo not drawn) | 10.1%
CC(C)CC(NC(=O)c1ccccc1NC(=O)c1ccccc1)C(=O)O (stereo not drawn) | 8.06%
O=C(NC1(C(F)(F)F)N=C(c2ccccc2)NC1=O)c1ccccc1 (stereo not drawn) | 9.23%
O=C(CNC(=O)c1ccccc1Cl)N/N=C/C=C/c1ccccc1 | 2.93%
CCNC(=O)C1CC(=O)N(c2ccc(Br)cc2)C1 (stereo not drawn) | 5.59%
CS(=O)(=O)Nc1ccc(C2=NN(C(=O)CCCC(=O)O)C(c3cccs3)C2)cc1 (stereo not drawn) | 12.1%
Oc1c(Br)cc(Br)cc1CNc1cnc2ccccc2c1 | 16.5%
COc1cc(/C=N/Nc2ccccc2)ccc1OC(=O)c1cccs1 | 11.6%
CCc1sc(NC(=O)COC)nc1-c1ccccc1 | -0.229%
COc1ccc(NC(=O)C(OC)c2ccccc2)cc1Cl (stereo not drawn) | 17.9%
O=C(NCCCN1CCCC1=O)c1ccc2c(=O)n(-c3ccc(F)cc3)c(=S)[nH]c2c1 | 12.1%
COc1ccc(-n2nc(C(=O)NCC(=O)NCc3ccccc3OC)c3ccccc3c2=O)cc1 | -31.4%
O=C(CCn1c(=O)sc2ccccc21)NCCC1=CCCCC1 | 11.8%
COc1ccc(-c2nnn(Cc3nc(N)nc(N4CCCCC4)n3)n2)cc1 | 0.639%

SMILES | hERG current change (%, negative = inhibition) at 1uM
Cc1ccc(N2CCN(CCc3nc4cc(NC(=O)c5ccco5)ccc4n3C)CC2)cc1 | -37.9%
CNc1ncc(C(=O)c2ccc(Cl)c(Cl)c2)s1 | 3.31%
COc1ccc(CCNC(=O)C23CN(Cc4ccccc4)CC2C(c2ccc([N+](=O)[O-])cc2)=NO3)cc1 (stereo not drawn) | -4.06%
Cn1nc(C(C)(C)C)c(NC(=O)c2sccc2Cl)c1C(C)(C)C | 5.58%
CC(=O)NNC(=S)Nc1cccc(F)c1 | 6.88%
CC(C)C[C@H](NC(=O)N1CCn2c1nc1ccccc12)C(=O)N1CCCCC1 | 12.3%
CCOC(=O)c1c(C)[nH]c(C)c1C(=O)CSc1nnc(-c2ccco2)n1Cc1ccccc1 | 7.51%
COc1ccc(-c2csc(NC(=O)CSc3nnnn3C)n2)cc1OC | 9.13%
COc1ccccc1-n1c(=O)[nH]c2c(C(N)=O)nc(CC(C)C)nc21 | 7.02%
Cl.O=C(CCN1CCCCCC1)Nc1ccccc1F | 5.74%
COc1cc(NC(=O)COc2ccc(Cl)cc2)ccc1NC(=O)C(C)C | 15.1%
CCc1nnc(NC(=O)CSc2nnc3ncccn23)s1 | 15.5%
COc1ccccc1C(=O)O/N=C(\N)c1ccccc1Cl | -3.81%
CCc1ccc(-c2nc(CS(=O)CC(=O)NC3CC3)c(C)o2)cc1 (stereo not drawn) | 12%
CCN1CCc2c(sc(NC(=S)NC(=O)c3ccccc3)c2C#N)C1 | 2.98%
Cn1nc(C(F)(F)F)c2cc(C(=O)O)sc21 | 14.1%
CN(C)c1ccc(NC(=O)Cn2ncn3c(cc4ccccc43)c2=O)cc1 | 11.9%
Cc1ccccc1/C=N\NC(=O)c1ccccc1-n1cccc1 | 17.1%
COc1ccccc1CNC(=O)C1CC2Cn3c(nc4cc(C)c(C)cc43)C2N1C (stereo not drawn) | 8.24%
